In all, about 45,000 compounds went through this assay and about 65 (0.1%) were called active. Calls come from the whole dose curve; as a rule, active = well fitted activation curve with a large enough effect; inconclusive = small, poorly fitted or top-dose-only effect; inactive = no such curve, though single readings can be large or run the other way. Some of the results follow.
The compounds below were run against Galactocerebrosidase (Homo sapiens) (UniProt P54803) (assay: A Novel Cell-Based Assay to Identify Small Molecules for B -Galactocerebrosidase). Details: 145M-Twi-hGALC-G270D cells (Twitcher mouse brain line with human GALC G270D), HMU-beta-Gal fluorescence, 48 h; series mostly up to 57.5 µM; activation: at the top concentration.
Outline: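 Brain-derived Twitcher mouse 145M-Twi cells stably expressing human GALC-G270D or wild-type GALC, treated live, then residual GALC activity read by fluorescence of HMU-b-Gal substrate (0.1 mM final) in citrate-phosphate buffer pH 5.2 with sodium taurocholate. Signal increase indicates enhancement.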
Note: 0% is about no effect; nearly all actives have a fitted effect of over 65% in size.

Sequence of UniProt P54803 (P54803 whole entry, looked up): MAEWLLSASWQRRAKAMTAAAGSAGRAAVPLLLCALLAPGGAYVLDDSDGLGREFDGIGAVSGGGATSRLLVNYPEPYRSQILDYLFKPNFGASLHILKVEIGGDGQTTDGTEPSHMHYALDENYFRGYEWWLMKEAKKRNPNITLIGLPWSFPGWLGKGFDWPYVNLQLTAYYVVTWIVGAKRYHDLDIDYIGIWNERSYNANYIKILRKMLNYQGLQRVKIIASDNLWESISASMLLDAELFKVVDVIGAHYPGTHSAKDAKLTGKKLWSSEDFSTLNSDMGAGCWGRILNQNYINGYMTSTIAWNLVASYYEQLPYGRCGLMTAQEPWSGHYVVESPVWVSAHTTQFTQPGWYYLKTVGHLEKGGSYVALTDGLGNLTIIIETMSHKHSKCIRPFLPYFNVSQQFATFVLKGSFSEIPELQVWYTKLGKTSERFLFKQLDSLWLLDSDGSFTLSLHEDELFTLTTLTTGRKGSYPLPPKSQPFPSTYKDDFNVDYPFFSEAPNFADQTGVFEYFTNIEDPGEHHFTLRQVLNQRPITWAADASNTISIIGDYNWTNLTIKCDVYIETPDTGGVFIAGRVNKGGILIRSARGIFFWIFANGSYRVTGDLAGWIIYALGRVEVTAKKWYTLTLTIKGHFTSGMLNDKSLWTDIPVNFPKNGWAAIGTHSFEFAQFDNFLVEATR

activation, inactive:
Oc1ccc(OCc2ccccc2)cc1 -15.2%
Cc1ccc(C(=O)CSc2nc3cc(C(=O)NC4CCCC4)ccc3c(=O)n2CC2CCCO2)c(C)c1 (configuration not stated) -9.66%
CC(C)CCNc1nc2c(-c3ccccc3)nnn2c2ccccc12 -18%
COC(=O)c1ccccc1NC(=O)CSc1n[nH]c(CC(C)C)n1 -13.4%
Cc1nn(-c2ccccc2)c2nc(C3CC3)cc(C(=O)Nc3cccc(F)c3)c12 -11.4%
CCOc1ccc(CNC(=O)c2ccc(CSc3nc4ccncc4n3Cc3ccc(F)cc3)cc2)cc1 -8.14%
COc1cccc(NC(=O)c2oc3ccccc3c2NC(=O)c2ccccc2C)c1 -19.3%
O=C(CC1N=C2c3ccccc3N=C(SCc3cccc(F)c3)N2C1=O)NCc1cccs1 (configuration not stated) -13.7%
COc1cccc(-c2cc(C(=O)Nc3cnn(Cc4ccc(Cl)cc4Cl)c3)no2)c1 -8.78%
COc1ccc2c(c1)c1c(c(=O)n(-c3cc(Cl)ccc3C)c(=O)n1CC(=O)N1CCCC1)n2C -4.14%
Cc1nn2c(=O)cc(COc3ccc(/C=C(\C#N)C(=O)Nc4ccccc4C)cc3)nc2s1 -12.3%
COc1ccc(-c2nnn3c2nc(NCCc2ccc(OC)c(OC)c2)c2ccccc23)cc1 -12.9%
COc1ccc(OC)c(Nc2nc3ccccc3nc2-n2nc(C)cc2C)c1 -2.81%
CCCCN(CCCC)CCCNC(=O)c1ccc2nc(N3CCCCC3)sc2c1 -9.04%
Cc1ccc(CNC(=O)CCNS(=O)(=O)c2ccc3c(c2)CCCC(=O)N3)cc1 -25.5%
COc1ccc(Cn2ccc3nc(C)c(C(=O)N4CCN(c5ccc(F)cc5)CC4)cc3c2=O)cc1 -15.5%
Cc1ccccc1NC(=O)c1c(NC(=O)c2ccccc2F)sc2c1CCC(C)C2 (configuration not stated) -13.5%
COc1ccccc1NC(=O)c1ncn(-c2ccccc2)n1 -13.7%
CCCCN1C(=O)c2[nH]nc(-c3ccccc3O)c2C1c1ccc(OCc2ccccc2)c(OC)c1 (configuration not stated) -12.9%
Cc1c(C(=O)OC2CCC(C)CC2)[nH]c2c1C(=O)CC(c1ccc(F)cc1)C2 (configuration not stated) -18.5%
Cc1ccc(Sc2c(C)nn(C(C)(C)C)c2OC(=O)CC(C)C)cc1 -15.2%
Cc1nn(S(=O)(=O)c2ccc(F)cc2)c(C)c1S(=O)(=O)N1CCCCCC1 -4.38%
COc1cc(-c2cc(OC)c3c(C)oc(C)c3c(=O)c2)ccc1OC(=O)c1cccc(C)c1 -7.68%
Cc1ccc(CNC(=O)c2ccc3c(c2)c(C)c(C)n3Cc2ccc(Cl)cc2)o1 1.12%
Cc1ccc(C2C=C(c3ccccc3)Nc3nc(NS(C)(=O)=O)nn32)cc1 (configuration not stated) -16%
Cc1c(-c2ccccc2)c(=O)oc2c(CN3CCOCC3)c(O)ccc12 -10.6%
COc1ccc(NC(=O)C2CCN(c3cc(C)nc4c(-c5ccc(Cl)cc5)c(C)nn34)CC2)cc1 -2.13%
CCOc1ccc(C2C(C(=O)Nc3ccc(OC)cc3)=C(C)Nc3nc(CCCO)nn32)cc1 (configuration not stated) -14.1%
CCc1cccc(C)c1NC(=O)CSc1nc2ccncc2[nH]1 -5.24%
CCCc1cc(=O)[nH]c(SCc2nc(-c3ccc(OCC)cc3)no2)n1 -12.1%
Cc1ccc(C(=O)Nc2c(C(=O)Nc3ccc(C)c(C)c3)sc3nc(C)cc(C)c23)cc1 -15.5%
Cc1ccc(-c2noc(-c3ccc(N4CCCC4)c([N+](=O)[O-])c3)n2)cc1 -2.9%
CCOC(=O)c1c(C)oc2nc(C)nc(NCCc3ccc(Cl)cc3)c12 -17.4%
Cc1ccc(NC(=O)Cn2c(=O)n(Cc3ccc4c(c3)OCO4)c(=O)c3oc4ccccc4c32)cc1C -16.5%
CC(C)c1ccc(NC(=O)Cn2nnc(C(=O)NCc3ccc4c(c3)OCO4)c2N)cc1 -8.54%
CCOC(=O)C1CCN(Cc2cn3c(-c4ccc(OC)cc4)nnc3s2)CC1 -8.91%
COc1cccc(NS(=O)(=O)c2ccc3[nH]cc(C(=O)NC(C)c4ccccc4)c(=O)c3c2)c1 (configuration not stated) -11%
Cc1cccc(NC(=O)c2cn(-c3ccccc3)nc2-c2ccccc2)c1C -7.36%
Cc1ccccc1CN1CCCN(CC(=O)Nc2ccc(F)cc2)S1(=O)=O -14.7%
CCOc1ccc(C(=O)Nc2ccc3nc(N(CC)CC)cc(C)c3c2)cc1 -4.67%
Cc1cc(N2CCC(C(=O)Nc3ccc(F)cc3F)CC2)n2nc(C)c(-c3ccc(Cl)cc3)c2n1 -6.16%
Cc1ccc(/C=C/C(=O)Nc2ccc3nc(N4CCC(C)CC4)cc(C)c3c2)cc1 -8.08%
Cn1c(=O)oc2cc(S(=O)(=O)NC(Cc3ccccc3)C(=O)Nc3ccc(F)c(Cl)c3)ccc21 (configuration not stated) -4.22%
CCOC(=O)c1c(C)[nH]c(C)c1S(=O)(=O)N1CCN(c2cc(Cl)ccc2C)CC1 -19.8%
O=C(c1cc(-c2ccc(Cl)cc2)n[nH]1)N1CCN(S(=O)(=O)c2ccc(Br)s2)CC1 -3.5%
Cc1nnc(NC(=O)c2nc(SC(C)C)ncc2Cl)s1 -13.6%
Clc1ccccc1Cn1c(-c2cccs2)nc2ccccc21 -13%
CCOc1ccc(NC(=O)c2sc(-n3nc(C)c(Cc4ccc(Cl)cc4)c3C)nc2C)cc1 -12%
CCN(c1cccc(C)c1)S(=O)(=O)c1cc2c(cc1C)n(C)c(=O)c(=O)n2C -0.12%
CCOc1cccc2sc(NC(=O)c3ccc(S(=O)(=O)N4CCCCC4C)cc3)nc12 (configuration not stated) -1.62%
Cc1cccc(N(C)C(=O)CCS(=O)(=O)c2ccc3c(c2)n(C)c(=O)c(=O)n3C)c1 -12.9%
CCc1cccc(NC(=O)c2ccc3c(c2)N(Cc2cccc(Cl)c2)C(=O)c2ccccc2S3=O)c1 (configuration not stated) -3.26%
CCOC(=O)c1c(-c2ccc(C)cc2)csc1NC(=O)c1cc(-c2ccc(OC)cc2)on1 4.01%
Cc1cccc(NC(=O)CN(C)S(=O)(=O)c2ccc3c(c2)c(=O)n(C)c(=O)n3C)c1C 11.3%
CCCn1c2ccccc2c2cnn(CC(=O)NCCN(CC)CC)c(=O)c21 -15.3%
COc1ccc(-c2nc3ccccc3o2)cc1NC(=O)c1cccnc1 -11.8%
COc1ccc(CCNC(=O)c2ccc3c(c2)N=C(C)c2ccccc2S3)cc1OC -6.55%
COc1ccc(CCNS(=O)(=O)c2c(C)nc3sc(C)cn3c2=O)cc1OC -7.03%
Cc1cc(Nc2cccc(C(=O)O)c2)n2nc(C)nc2n1 -7.49%
CCCCOc1ccc(C(=O)Nc2cc(-c3cn4cccnc4n3)ccc2OC)cc1 3.28%
COc1ccc(NC(=O)NC(C)c2c(-n3cccc3)sc(C)c2C)cc1OC (configuration not stated) -3.7%
CCN(CC)CCCNC(=O)c1ccc2c(c1)sc1nc(-c3ccc(C)cc3)cn12 -9.53%
CCOc1c(Cl)cc(CNc2ccc3[nH]c(=O)[nH]c3c2)cc1OC -8.66%
CCOc1ccc(CNC(=O)c2ccc(NC(=O)N3CCCCc4ccccc43)cc2)cc1 -8.39%
Cc1c(NC(=O)Cc2ccc(Cl)cc2)cccc1-c1nc2cccnc2s1 -8.21%
CCOC(=O)c1c(C)[nH]c(C)c1S(=O)(=O)NCC(=O)Nc1cccc(Cl)c1 -3.09%
O=C(NCCO[N+](=O)[O-])c1cccnc1 -15.9%
CCOC(=O)c1c(S(=O)(=O)N2CCCC(C(=O)Nc3cccc(CC)c3)C2)c(C)n(CC)c1C (configuration not stated) 5.84%
Cc1cccc(OC(=O)CSc2nnc(-c3cccs3)o2)c1C -5.16%
CSc1ncc(Cl)c(C(=O)Nc2c(C(=O)c3ccc(Cl)cc3)oc3ccccc23)n1 -10.9%
Cc1ccc(-n2ncc(C(=O)N3CCN(c4ccccc4F)CC3)c2C2CCN(C(=O)OC(C)(C)C)CC2)cc1C 7.95%
Cc1ccccc1Nc1c(-c2c[nH]c3ccccc23)nc2ccc(Cl)cn12 1.97%
O=C(CSc1nc(Nc2ccccc2)c2ccccc2n1)c1ccc(Cl)cc1 -15.1%
Cc1ccc(Cl)c(Nc2ccccc2C(=O)O)c1Cl -20.3%
Cc1cc(C)cc(NC(=O)NCc2c(-n3cccc3)sc3c2CCCC3)c1 -13.4%
Cc1c(CNC2CCCCCC2)c(C(=O)O)c(C)n1Cc1cccc(Cl)c1 -1.8%
Cc1cccc(CNC(=O)Cn2nc(C)c3nn(-c4ccc(Cl)cc4)c(C)c3c2=O)c1 -14.3%
Cc1cccc(N2CCN(C(=O)CCS(=O)(=O)c3ccc4c(c3)CC(=O)N4C)CC2C)c1 (configuration not stated) -7.77%
CCCCOC(=O)c1ccc(NC(=O)c2ccc3c(c2)CCN3S(C)(=O)=O)cc1 -9.54%
Cc1cccc(C(c2sc3nc(-c4ccco4)nn3c2O)N2CCOCC2)c1 (configuration not stated) -8.46%
Cc1ccc(NS(=O)(=O)c2ccc3c(c2)n(C)c(=O)n3C)c(C)c1 -20.3%
CC(=O)N1CCN(c2csc3ccc(Cl)cc3c2=O)CC1 -5.38%
COC(=O)c1scc(-c2ccc(C)cc2)c1S(=O)(=O)Nc1cc(C)c(Cl)cc1OC 6.65%
Clc1cccc(CNCCCSc2nnnn2-c2ccccc2)c1 -1.31%
CCOc1ccccc1NC(=O)Cn1c(=O)oc2ccccc21 -2.56%
COc1ccc(-c2noc(N3CCC(C(=O)N4CCN(c5cccc(OC)c5)CC4)CC3)n2)cc1 -6.58%
CCOC(=O)c1c(-c2ccccc2)oc2ccc(OCc3ccccc3Br)cc12 -11.7%
COc1ccc(NC(=O)Cn2cc(C(=O)c3ccc(C)c(C)c3)c(=O)c3cc(OC)ccc32)cc1 -2.24%
CCNc1nc2c(c(=O)n(C)c(=O)n2C)n1Cc1ccc(F)cc1 -15.8%
O=C(NCCc1cccs1)c1ccc(Cn2c(SCc3cccc(F)c3)nc3cccnc32)cc1 -9.5%
Fc1cccc(CN2CCc3nc(Nc4ccc5c(c4)OCCO5)ncc3C2)c1F -4.96%
O=C(Cn1cc(C(=O)c2ccco2)c2ccccc21)Nc1ccccc1C(F)(F)F -43.8%
COc1ccc(-c2csc3ncnc(Nc4ccccc4)c23)cc1 -15.2%
Cc1ccc(CSC2=NC(C)(C)Nc3ccccc32)c(C)c1 13.2%
Cc1ccccc1S(=O)Cc1ccc(C(=O)NCc2ccccc2Cl)o1 (configuration not stated) -26.9%
COc1cccc(NC(=O)Cn2c(=O)n(CCC(=O)NCc3ccccc3OC)c(=O)c3ccccc32)c1 -8.36%
COc1ccc(Cl)cc1NC(=O)Cn1c(=O)n2nc(-c3ccccc3)nc2c2ccccc21 -7.8%
